According to the supplement of paper PMC4967469:
A lower IC50 marks a more sensitive line; fits outside the tested doses are given as limits. AUC sums up the same curve from the lowest dose to the 256-fold higher top dose; the more sensitive the line, the further below 1. For part of these data: An inferred top dose was calculated from the reported fits.

What was measured:
Test in all cases: Viability of human cancer cell lines after 72 h of drug (GDSC screen)
Temsirolimus = compound: CO[C@H]1C[C@@H]2CC[C@@H](C)[C@@](O)(O2)C(=O)C(=O)N2CCCC[C@H]2C(=O)O[C@H]([C@H](C)C[C@@H]2CC[C@@H](OC(=O)C(C)(CO)CO)[C@H](OC)C2)CC(=O)[C@H](C)/C=C(\C)[C@@H](O)[C@@H](OC)C(=O)[C@H](C)C[C@H](C)/C=C/C=C/C=C/1C [Temsirolimus]; details: top dose 0.2 µM
Experimental: (§1)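 Human cancer cell lines in 384-well plates, medium with 10% serum, drug for 72 h over a 256-fold dose range (nine 2-fold or five 4-fold steps up to the top dose). Adherent lines were fixed and stained with the nucleic acid dye Syto60, suspension lines read with resazurin; signal relative to control wells, capped at 0 and 100%. One two-parameter sigmoid per drug and line, fitted in a mixed model over all curves with the slope shared within a line.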

SL 0101-1 = compound: CC(=O)O[C@@H]1[C@@H](OC(C)=O)[C@@H](O)[C@H](Oc2c(-c3ccc(O)cc3)oc3cc(O)cc(O)c3c2=O)O[C@H]1C [SL 0101-1]; details: top dose 10 µM; top dose inferred
Experimental: as §1

XMD15-27 = compound: C=CC(=O)Nc1ccc(C(=O)c2sc(Nc3ccc(N4CCN(C)CC4)cc3OC)nc2N)cc1 [XMD15-27]; details: top dose 10.24 µM; top dose inferred
Experimental: as §1

| Cell Line | AUC (Temsirolimus) | IC50 (Temsirolimus) [µM] | AUC (SL 0101-1) | IC50 (SL 0101-1) [µM] | AUC (XMD15-27) | IC50 (XMD15-27) [µM] |
| --- | --- | --- | --- | --- | --- | --- |
| CAL-85-1 (breast, adherent) | 0.964 | > 0.2 | 0.966 | > 10 | 0.959 | > 10.2 |
| CAL-120 (breast, adherent) | 0.9 | > 0.2 | 0.933 | > 10 | 0.957 | > 10.2 |
| CAPAN-1 (pancreas, adherent) | 0.915 | > 0.2 | 0.987 | > 10 | 0.983 | > 10.2 |
| CAS-1 (glioma, adherent) | 0.86 | > 0.2 | 0.979 | > 10 | 0.982 | > 10.2 |
| CCF-STTG1 (glioma, adherent) | 0.882 | > 0.2 | 0.988 | > 10 | 0.988 | > 10.2 |
| CCK-81 (large intestine, adherent) | 0.99 | > 0.2 | 0.99 | > 10 | 0.99 | > 10.2 |
| CCRF-CEM (lymphoblastic leukaemia, suspension) | 0.156 | 0.00142 | 0.954 | > 10 | 0.976 | > 10.2 |
| CESS (acute myeloid leukaemia, suspension) | 0.946 | > 0.2 | 0.991 | > 10 | 0.921 | > 10.2 |
| CGTH-W-1 (thyroid, adherent) | 0.332 | 0.00428 | 0.981 | > 10 | 0.974 | > 10.2 |
| CHL-1 (melanoma, adherent) | 0.389 | 0.00629 | 0.913 | > 10 | 0.977 | > 10.2 |
| CHP-126 (neuroblastoma, suspension) | 0.908 | > 0.2 | 0.987 | > 10 | 0.971 | > 10.2 |
| CHP-212 (neuroblastoma, adherent) | 0.614 | 0.025 | 0.977 | > 10 | 0.968 | > 10.2 |
| CHSA0108 (chondrosarcoma, adherent) | 0.801 | 0.115 | 0.983 | > 10 | 0.975 | > 10.2 |
| CHSA8926 (chondrosarcoma, adherent) | 0.874 | > 0.2 | 0.98 | > 10 | 0.98 | > 10.2 |
| CL-11 (large intestine, adherent) | 0.969 | > 0.2 | 0.981 | > 10 | 0.986 | > 10.2 |
| CMK (acute myeloid leukaemia, suspension) | 0.937 | > 0.2 | 0.985 | > 10 | 0.948 | > 10.2 |
| COLO-205 (large intestine, suspension) | 0.932 | > 0.2 | 0.967 | > 10 | 0.988 | > 10.2 |
| COLO-320-HSR (large intestine, suspension) | 0.976 | > 0.2 | 0.992 | > 10 | 0.991 | > 10.2 |
| COLO-668 (small cell lung carcinoma, adherent) | 0.982 | > 0.2 | 0.983 | > 10 | 0.989 | > 10.2 |

| Cell Line | AUC (Temsirolimus) | IC50 (Temsirolimus) [µM] | AUC (SL 0101-1) | IC50 (SL 0101-1) [µM] | AUC (XMD15-27) | IC50 (XMD15-27) [µM] |
| --- | --- | --- | --- | --- | --- | --- |
| COLO-678 (large intestine, semi-adherent) | 0.967 | > 0.2 | 0.979 | > 10 | 0.983 | > 10.2 |
| COLO-679 (melanoma, adherent) | 0.906 | > 0.2 | 0.985 | > 10 | 0.98 | > 10.2 |
| COLO-680N (oesophagus, adherent) | 0.953 | > 0.2 | 0.986 | > 10 | 0.984 | > 10.2 |
| COLO-684 (endometrium, suspension) | 0.722 | 0.0585 | 0.981 | > 10 | 0.958 | > 10.2 |
| COLO-783 (melanoma, adherent) | 0.915 | > 0.2 | 0.98 | > 10 | 0.986 | > 10.2 |
| COLO-800 (melanoma, adherent) | 0.781 | 0.0803 | 0.987 | > 10 | 0.979 | > 10.2 |
| COLO-824 (breast, adherent) | 0.988 | > 0.2 | 0.957 | > 10 | 0.973 | > 10.2 |
| COR-L23 (large cell lung carcinoma, adherent) | 0.903 | > 0.2 | 0.944 | > 10 | 0.976 | > 10.2 |
| COR-L88 (small cell lung carcinoma, adherent) | 0.972 | > 0.2 | 0.984 | > 10 | 0.986 | > 10.2 |
| COR-L95 (small cell lung carcinoma, adherent) | 0.962 | > 0.2 | 0.987 | > 10 | 0.986 | > 10.2 |
| COR-L279 (small cell lung carcinoma, suspension) | 0.977 | > 0.2 | 0.991 | > 10 | 0.988 | > 10.2 |
| COR-L321 (lung, suspension) | 0.97 | > 0.2 | 0.98 | > 10 | 0.945 | > 10.2 |
| CP50-MEL-B (melanoma, adherent) | 0.915 | > 0.2 | 0.972 | > 10 | 0.988 | > 10.2 |
| CP66-MEL (melanoma, adherent) | 0.915 | > 0.2 | 0.986 | > 10 | 0.986 | > 10.2 |
| CPC-N (small cell lung carcinoma, suspension) | 0.939 | > 0.2 | 0.984 | > 10 | 0.985 | > 10.2 |
| CS1 (bone, adherent) | 0.667 | 0.0388 | 0.984 | > 10 | 0.945 | > 10.2 |
| CTB-1 (B-cell lymphoma, suspension) | 0.576 | 0.0218 | 0.978 | > 10 | 0.934 | > 10.2 |
| CTV-1 (acute myeloid leukaemia, suspension) | 0.657 | 0.031 | 0.991 | > 10 | 0.969 | > 10.2 |
| CW-2 (large intestine, adherent) | 0.987 | > 0.2 | 0.981 | > 10 | 0.976 | > 10.2 |

| Cell Line | AUC (Temsirolimus) | IC50 (Temsirolimus) [µM] | AUC (SL 0101-1) | IC50 (SL 0101-1) [µM] | AUC (XMD15-27) | IC50 (XMD15-27) [µM] |
| --- | --- | --- | --- | --- | --- | --- |
| Ca9-22 (head and neck, adherent) | 0.737 | 0.0559 | 0.977 | > 10 | 0.983 | > 10.2 |
| Ca-Ski (cervix, adherent) | 0.633 | 0.0304 | 0.983 | > 10 | 0.968 | > 10.2 |
| CaR-1 (large intestine, adherent) | 0.934 | > 0.2 | 0.955 | > 10 | 0.978 | > 10.2 |
| Calu-3 (lung adenocarcinoma, adherent) | 0.87 | > 0.2 | 0.949 | > 10 | 0.983 | > 10.2 |
| Calu-6 (lung adenocarcinoma, adherent) | 0.967 | > 0.2 | 0.983 | > 10 | 0.983 | > 10.2 |
| Caov-4 (ovary, adherent) | 0.927 | > 0.2 | 0.98 | > 10 | 0.968 | > 10.2 |
| Capan-2 (pancreas, adherent) | 0.982 | > 0.2 | 0.965 | > 10 | 0.982 | > 10.2 |
| D-247MG (glioma, adherent) | 0.729 | 0.0726 | 0.975 | > 10 | 0.815 | 8.45 |
| D-263MG (glioma, adherent) | 0.75 | 0.0774 | 0.963 | > 10 | 0.983 | > 10.2 |
| D-283MED (medulloblastoma, adherent) | 0.943 | > 0.2 | 0.977 | > 10 | 0.991 | > 10.2 |
| D-336MG (glioma, adherent) | 0.685 | 0.048 | 0.981 | > 10 | 0.978 | > 10.2 |
| D-392MG (glioma, adherent) | 0.709 | 0.0609 | 0.958 | > 10 | 0.98 | > 10.2 |
| D-423MG (glioma, adherent) | 0.808 | 0.132 | 0.958 | > 10 | 0.936 | > 10.2 |
| D-502MG (glioma, adherent) | 0.836 | > 0.2 | 0.97 | > 10 | 0.96 | > 10.2 |
| D-542MG (glioma, adherent) | 0.83 | 0.165 | 0.984 | > 10 | 0.984 | > 10.2 |
| D-566MG (glioma, adherent) | 0.43 | 0.00808 | 0.985 | > 10 | 0.967 | > 10.2 |
| DAN-G (pancreas, adherent) | 0.922 | > 0.2 | 0.987 | > 10 | 0.992 | > 10.2 |
| DB (B-cell lymphoma, suspension) | 0.42 | 0.00734 | 0.911 | > 10 | 0.977 | > 10.2 |
| DBTRG-05MG (glioma, adherent) | 0.718 | 0.0584 | 0.984 | > 10 | 0.968 | > 10.2 |
